# “And” between values parts separate entries of the source, which are not always exact repeats. Equal values may be shown once. The campaign covered roughly 410,000 compounds. About 5,000 (1.2%) were called active. The shares of active, inactive and inconclusive entries below differ from those in the screen. Calls come from the whole dose curve; as a rule, active = well fitted inhibition curve with a large enough effect; inconclusive = small, poorly fitted or top-dose-only effect; inactive = no such curve, though single readings can be large or run the other way. Potencies of inconclusive entries are doubtful fits and often do not repeat.
# Assay: qHTS for Inhibitors of TGF-b; note: nearly all actives have a fitted effect of over 65% in size
# Settings: HepG2 CAGA-GFP TGF-b/SMAD3 reporter, GFP fluorescence, 18 h, TGF-beta stimulated, 500 pg/mL final; series mostly up to 46.1 µM; activity, negative = inhibition: at the top concentration
# Outline: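 TGF-beta reporter screen: HEPG2 CAGA-GFP, 1% FBS, 500 pg/mL TGF-beta final, 18 h; per-cell GFP summed per well; curves fitted and categorized by class.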
# % is set by controls: 0 for no effect and ±100 for the full control effect; potency is the fitted concentration of half-maximal effect; tags give direction and shape of the fitted curve.
Compound,Potency,"activity, negative = inhibition"
COc1cccc(-c2ccc(C#N)c(SCC(=O)NCCc3ccccc3)n2)c1,"inconclusive: 6.31 µM [inhibitor, single point]",–
Cc1ccccc1OCCCCn1c(CCNC(=O)C(C)(C)C)nc2ccccc21,active: 15.8 µM,–
CNC(=O)c1ccsc1NC(=O)CCS(=O)(=O)c1ccccc1,"inconclusive: 35.5 µM [inhibitor, single point]",–
CCCCn1c(=N)n(CC(=O)c2ccc(Br)s2)c2ccccc21,"inconclusive: 11.2 µM [inhibitor, partial curve, poor fit]",–
COc1cc2c(NC3CCN(C)CC3)nc(N3CCCCC3)nc2cc1OCCOCCN(C)C,–,inactive: -99.8%
Clc1ccc(-n2ncc3c(NCCCn4ccnc4)ncnc32)cc1,"inconclusive: 20 µM [inhibitor, single point]",–
Cc1cccc(Cn2c(SCc3ccc(C(=O)NC4CCCC4)cc3)nc3cccnc32)c1,"inconclusive: 15.8 µM [inhibitor, partial curve]",–
C=CCN(CC=C)C(=O)c1ccc2nc(Cc3ccc(OC)c(OC)c3)oc2c1,"inconclusive: 6.31 µM [inhibitor, partial curve]",–
CC(OC(=O)CCN1C(=O)c2cccc([N+](=O)[O-])c2C1=O)C(=O)Nc1cc(Cl)cc(Cl)c1 (configuration not stated),"inconclusive: 35.5 µM [inhibitor, single point]",–
COc1ccc(NC(=O)C2CCN(S(=O)(=O)c3c(C)noc3/C=C/c3cccs3)CC2)cc1,"inconclusive: 35.5 µM [inhibitor, single point]",–
CCOC(=O)C1=C(C)NC(=S)NC1c1ccc(-c2cccc(Cl)c2C)o1 (configuration not stated),"inconclusive: 35.5 µM [inhibitor, single point]",–
C=C(C)COc1ccc(-c2[nH]ncc2Oc2ccc(OC)cc2)c(O)c1,"inconclusive: 35.5 µM [inhibitor, single point]",–
O=C(CCCN1C(=O)/C(=C/c2ccccc2OC(F)F)SC1=S)Nc1cccnc1,"inconclusive: 35.5 µM [inhibitor, single point]",–
COc1ccccc1-c1nnc(NC(=O)CCS(=O)(=O)c2ccccc2)o1,"inconclusive: 35.5 µM [inhibitor, single point]",–
CC(NC(=O)Nc1nnc(C(F)(F)F)s1)N1C(=O)C2C3C=CC(C3)C2C1=O (configuration not stated),"inconclusive: 0.708 µM [inhibitor, full curve, poor fit]",–
Cc1ccc(NS(=O)(=O)c2ccc(Cl)c(NC(=S)NC(=O)C3CCCCC3)c2)cc1Cl,"inconclusive: 8.91 µM [inhibitor, partial curve, poor fit]",–
O=C(/C=C/c1ccccc1)N1CCN(S(=O)(=O)c2ccc(F)cc2)CC1,–,inactive: -28.4%
COc1ccc(CN2C[C@H](Cc3ccccc3)[C@@H](CC(=O)Nc3ccccc3)C2=O)cc1,"inconclusive: 11.2 µM [inhibitor, partial curve] and inconclusive: 14.1 µM [inhibitor, partial curve]",–
COc1cc(Cl)c(C)cc1NC(=O)CCc1nc2cccnc2n1Cc1cccs1,"inconclusive: 7.08 µM [inhibitor, full curve, poor fit]",–
O=C(NC(=S)NCCC1=CCCCC1)c1ccccc1Br,"inconclusive: 6.31 µM [inhibitor, partial curve]",–
Cc1ccc(C(=O)NCC(=O)NCC(=O)OCC(=O)c2ccc([N+](=O)[O-])cc2)cc1,"inconclusive: 3.98 µM [inhibitor, partial curve, poor fit]",–

Compound,Potency,"activity, negative = inhibition"
COc1ccc(CNC(=O)c2ccc(N(C)S(=O)(=O)c3ccc(C)cc3)cc2)cc1,"inconclusive: 0.0891 µM [inhibitor, full curve, poor fit]",–
Cc1cn(C2CC(O)C(CO)O2)c(=O)n(Cc2ccccc2)c1=O (configuration not stated),"inconclusive: 8.91 µM [inhibitor, partial curve, poor fit]",–
C=CCNC(=S)N1CCC(C(N)=O)CC1,"inconclusive: 17.8 µM [inhibitor, single point]",–
COc1ccc(F)cc1-c1cc(NC(C)=O)c2ncc(-c3cccc(C(F)(F)F)c3)n2c1,"inconclusive: 35.5 µM [inhibitor, single point]",–
Cc1ccc(S(=O)(=O)NCc2nc3nc(C)cc(C)n3n2)cc1,–,inactive: 18.1%
O=C(Cc1cn(Cc2cccc(Cl)c2)c2ccccc12)N1CCCCCC1,"inconclusive: 35.5 µM [inhibitor, single point]",–
CCOc1ccc(N(C)S(=O)(=O)c2ccc(C)c(C(=O)NCCc3ccc(OC)cc3)c2)cc1,–,inactive: 0%
O=S(=O)(c1ccc(OCC(O)CNC23CC4CC(CC(C4)C2)C3)c(Cl)c1)N1CCOCC1 (configuration not stated),"inconclusive: 35.5 µM [inhibitor, single point]",–
Cc1ccc(C)c(CN2CCCN(CC(=O)Nc3ccc(C)c(C)c3)S2(=O)=O)c1,"inconclusive: 25.1 µM [inhibitor, single point]",–
Fc1ccc(C(NCCc2ccccc2)c2nnc(-c3ccccc3Cl)o2)cc1 (configuration not stated),"inconclusive: 35.5 µM [inhibitor, single point]",–
CC1(C(=O)Nc2cccc(NS(C)(=O)=O)c2)Cc2c(-c3cccc(C(N)=O)c3)ccnc2O1 (configuration not stated),–,inactive: -13.2%
O=C(CNCC1CCCCC1)Nc1ccccc1N1CCCCC1,"inconclusive: 22.4 µM [inhibitor, partial curve, poor fit]",–
CCN(Cc1cc2cc(C)ccc2[nH]c1=O)C(=O)c1cccc([N+](=O)[O-])c1,"inconclusive: 35.5 µM [inhibitor, single point]",–
COc1ccc(C)cc1NS(=O)(=O)c1ccc2c(c1)NC(=O)C(C)S2 (configuration not stated),"inconclusive: 35.5 µM [inhibitor, single point]",–
CCOC(=O)C1=C(C)N(c2ccc(OC)cc2)C(=O)/C1=C\c1ccc(O)c(OCC)c1,"inconclusive: 35.5 µM [inhibitor, single point]",–
COc1ccc([C@H]2CC(=O)C=C(c3ccc(-c4ccccc4)c(F)c3)C2)cc1OC,"inconclusive: 14.1 µM [inhibitor, single point]",–
Cc1cccc2c(=O)cc(CSCC(=O)Nc3ccc(Cl)cc3)[nH]c12,–,inactive: -21%
O=C(c1cc(-c2ccc(Cl)c(Cl)c2)on1)N1CCOCC1,–,inactive: -3.57%
O=C(NCCCc1cnc[nH]1)NCCCN(Cc1ccc(Cl)cc1)c1ccc(Br)cn1,"inconclusive: 11.2 µM [inhibitor, partial curve, poor fit]",–
CCCn1c(SCC(=O)c2ccc3c(c2)OCCO3)nnc1C(C)C,"inconclusive: 5.01 µM [inhibitor, single point]",–
CCc1ccc(C(O)c2ncc(-c3cccc(C(F)(F)F)c3)[nH]2)cc1 (configuration not stated),"inconclusive: 31.6 µM [inhibitor, single point]",–

Compound,Potency,"activity, negative = inhibition"
CC1CCCC(C)N1/N=C/c1cc(Br)cc(Br)c1O (configuration not stated),–,inactive: -17.5%
CCCCC1CC2=C(C(=O)OC(C)(C)O2)C(c2ccc3ccccc3c2)O1 (configuration not stated),"inconclusive: 35.5 µM [inhibitor, single point]",–
O=C(CSc1nnc(-c2cccs2)n1C1CC1)NC1CCS(=O)(=O)C1 (configuration not stated),–,inactive: -2.98%
COc1ccc(Cc2nc3ccc(C(=O)NCCc4ccc(OC)c(OC)c4)cc3o2)cc1,"inconclusive: 2.24 µM [inhibitor, full curve, poor fit]",–
COc1ccc(-c2nc(-c3ccccc3)c(-c3cc([N+](=O)[O-])ccc3C)[nH]2)cc1OC,–,inactive: 33.4%
Cc1cc(C)cc(NC(c2nnc(-c3cccc(F)c3)o2)c2ccc(F)cc2Cl)c1 (configuration not stated),"inconclusive: 35.5 µM [inhibitor, single point]",–
CC(=O)Nc1ccc(CNc2nc(NC(C)C)nc3ccsc23)cc1,–,inactive: -6.94%
Cc1nc2c(-c3ccc(Cl)cc3)cnn2c2c1CCC2,"inconclusive: 5.62 µM [inhibitor, single point]",–
O=C(Nc1cccc(C(F)(F)F)c1)C1CCN(S(=O)(=O)c2ccc(N3CCCC3=O)cc2)CC1,"inconclusive: 15.8 µM [inhibitor, single point]",–
CC1CCCN(C(=O)CSc2nc3ccccc3o2)C1 (configuration not stated),–,inactive: 2.33%
O=C(c1cnc2c(c1)COc1ccccc1-2)c1ccccc1O,"inconclusive: 10 µM [inhibitor, partial curve]",–
COc1cc(/C=N/n2c(-c3ccccc3)n[nH]c2=S)cc(OC)c1O,"inconclusive: 3.98 µM [inhibitor, full curve, poor fit]",–
C=CCNS(=O)(=O)c1ccc2c(c1)n(C)c(=O)n2C,"inconclusive: 3.16 µM [inhibitor, partial curve]",–
COc1ccc(S(=O)(=O)N2CCN(Cc3cccs3)CC2)cc1OC,"inconclusive: 12.6 µM [inhibitor, partial curve, poor fit]",–
CCCCOc1cccc(C(=O)N(Cc2ccc(Br)o2)C2CCS(=O)(=O)C2)c1 (configuration not stated),"inconclusive: 1.78 µM [inhibitor, full curve, poor fit]",–
Cc1cccc(C(=O)Nc2ccc(C(=O)OCc3cc(=O)n4c(C)csc4n3)cc2)c1,"inconclusive: 35.5 µM [inhibitor, single point]",–
CCSc1nc2ccccc2c(=O)n1CCc1ccc(OC)c(OC)c1,"inconclusive: 2.24 µM [inhibitor, partial curve, poor fit]",–
Cc1cccc(NC(=O)Nc2cccc(Oc3c(F)c(F)c(F)c(F)c3F)c2)c1,"inconclusive: 6.31 µM [inhibitor, single point]",–
COc1ccc(C(C(=O)NC(C)(C)C)N(C(=O)CCC(=O)Nc2cc(C)on2)c2c(C)cccc2C)cc1 (configuration not stated),–,inactive: 0.901%
Cc1cc2c3c(c1)C1(SCC(=O)N1c1ccc(F)cc1)C(=O)N3C(C)(C)CC2C (configuration not stated),"inconclusive: 35.5 µM [inhibitor, single point]",–

# From PubChem BioAssay AID588855 (National Center for Advancing Translational Sciences (NCATS), 2011)
